The values below come from patent publication US20260258137A1 (HARBOUR BIOMED SHANGHAI, published 2026).

Where a chain is given by its changes, count along the chain named. Numbers in names are those of the source. Where two headings read alike, the source gives them in different places.

Experiment [1] concerns the target T1, Human TGFB1 (Novoprotein, CA59) (human, UniProt P01137 partial chain, biotinylated with EZ-Link Sulfo-NHS-LC-Biotin in the BLI experiment of Example 19; not biotinylated in the ELISA of Example 16).
T1 construct: bought reagent; also called human TGFB1 protein; biotinylated human TGFB1
Briefly: ELISA, coated human TGFB1. (ELISA stands for enzyme-linked immunosorbent assay.)

Experiment [2] concerns the target T2, human PD-L1 on CHO-K1 cells (CHO-K1/hPD-L1, Nanjing Genscript, M00543) (human, UniProt Q9NZQ7).
T2 construct: whole, on cells; also called CHO-K1 cells overexpressing human PD-L1; human PD-L1 on the cell surface
Kind of experiment: flow cytometry on CHO-K1/hPD-L1 cells.

In experiment [3] the target is T2, human PD-L1 on CHO-K1 cells …. Kind of experiment: flow cytometry competition: biotin-hPD-1 binding to CHO-K1/hPD-L1 cells. (In general: A flow cytometer gives signals particle by particle.)
Experiment [4] concerns the target T3, human PD-L1 protein with histidine tag (NovoProtein, C315) (human, UniProt Q9NZQ7 partial chain, limits assumed, biotinylated with EZ-Link Sulfo-NHS-LC-Biotin in the epitope competition experiments (Examples 8 and 20); not biotinylated in the affinity experiments).
T3 construct: bought reagent; also called biotinylated PD-L1 protein; not shown: histidine tag
Kind of experiment: BLI (Octet), fusion protein on AHC sensor, antigen 12.5-0.78 nM, 1:1 global fit.

Experiment [5] concerns the target T4, human TGFB1 protein (R&D Systems, 240-B/F) (human, UniProt P01137 partial chain). Kind of experiment: cell-based or functional assay.
Experiment [6] deals with T4, human TGFB1 protein (R&D Systems, …). Kind of experiment: cell-based or functional assay. The source holds these as a separate data set.
The target in experiment [7] is T1, Human TGFB1 (Novoprotein, CA59). Briefly: ELISA, coated human TGFB1. The source holds these as a separate data set.
In experiment [8] the target is T2, human PD-L1 on CHO-K1 cells …. Briefly: flow cytometry on CHO-K1/hPD-L1 cells. The source holds these as a separate data set.
In experiment [9] the target is T1, Human TGFB1 (Novoprotein, CA59). Briefly: BLI (Octet), biotinylated hTGFB1 on SA sensor, 1:1 global fit. (Biolayer interferometry detects binding as a change in optical thickness at a sensor tip.)
Experiment [10] deals with T2, human PD-L1 on CHO-K1 cells …. Briefly: flow cytometry competition: biotin-hPD-1 binding to CHO-K1/hPD-L1 cells. This is another data set of the same source.
For experiment [11], the target named is human PD-L1 on Hep3B cells co-expressing human PD-L1 and OS8 (human, UniProt Q9NZQ7). Briefly: cell-based or functional assay.
Experiment [12] deals with T3, human PD-L1 protein with histidine tag …. Briefly: BLI (Octet), fusion protein on AHC sensor, antigen 25-1.563 nM, 1:1 global fit.
Experiment [13] addresses T1, Human TGFB1 (Novoprotein, CA59). Briefly: ELISA, coated human TGFB1. This is another data set of the same source.
The target of experiment [14] is T3, human PD-L1 protein with histidine tag …. Briefly: BLI (Octet), fusion protein on AHC sensor, antigen 6.25-0.39 nM, 1:1 global fit.

T1 sequence (P01137 279-390 limits assumed): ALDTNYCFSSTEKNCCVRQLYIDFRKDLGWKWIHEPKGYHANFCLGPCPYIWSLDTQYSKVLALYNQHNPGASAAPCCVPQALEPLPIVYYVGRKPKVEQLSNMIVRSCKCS

B1: PR002251 (other)
heavy: EVQLVESGGGLVQPGGSLRLSCAASGFTFSSYWMSWVRQAPGKGLEWVANIKQDGSEKYYVDSVKGRFTISRDNAKNSLYLQMNSLRAEDTAVYYCARDRAVAGAFDIWGQGTMVTVSSASTKGPSVFPLAPSSKSTSGGTAALGCLVKDYFPEPVTVSWNSGALTSGVHTFPAVLQSSGLYSLSSVVTVPSSSLGTQTYICNVNHKPSNTKVDKKV[letters of human IgG1 Fc omitted]GGGSGGGGSGGGGSGGGGSGIPPHVQKSVNNDMIVTDNNGAVKFPQLCKFCDVRFSTCDNQKSCMSNCSITSICEKPQEVCVAVWRKNDENITLETVCHDPKLPYHDFILEDAASPKCIMKEKKKPGETFFMCSCSSDECNDNIIFSEEYNTSNPD
light: DIQMTQSPSTLSASVGDRVTVTCRASQSIYIWLAWYQQKPGKAPNLLIYKASSLETGVPSRFSGSGSGTEFTLTISSLQPDDFATYYCQQYYGSSRTFGQGTKVEIKRTVAAPSVFIFPPSDEQLKSGTASVVCLLNNFYPREAKVQWKVDNALQSGNSQESVTEQDSKDSTYSLSSTLTLSKADYEKHKVYACEVTHQGLSSPVTKSFNRGEC
notes: anti-PD-L1 / TGFBRII bifunctional fusion protein: PR000070 heavy chain (hIgG1) - (G4S)4 - human TGFBRII extracellular region 24-159
Turning to B1, in experiment [1], the 50% effective concentration (EC50) (in general, the concentration at which the effect is half-maximal) was 1.2 nM and the “OD Maximum value” was found to be 1.53 OD. Moreover, in experiment [2], the EC50 stood at 0.501 nM and the MFI maximum value was 41200 MFI. For the same molecule, in [3], the IC50 (commonly the concentration at which inhibition is half-maximal) was determined as 0.317 nM. For the same molecule, in experiment [4], binding was characterised by a dissociation constant (Kd) of 0.0974 nM; the koff (as a rule, the first-order rate constant of dissociation) was 0.000114 s⁻¹; the kon – broadly, the rate constant with which the complex forms – was found to be 1.17e+06 M⁻¹ s⁻¹.

B2: PR001902 (other)
heavy: EVQLVESGGGLVQPGGSLRLSCAASGFTFSSYWMSWVRQAPGKGLEWVANIKQEGSEKYYVDSVKGRFTISRDNAKNSLYLQMNSLRAEDTAVYYCARDRAVAGAFDIWGQGTMVTVSSASTKGPSVFPLAPSSKSTSGGTAALGCLVKDYFPEPVTVSWNSGALTSGVHTFPAVLQSSGLYSLSSVVTVPSSSLGTQTYICNVNHKPSNTKVDKKV[letters of human IgG1 Fc omitted]PPHVQKSVNNDMIVTDNNGAVKFPQLCKFCDVRFSTCDNQKSCMSNCSITSICEKPQEVCVAVWRKNDENITLETVCHDPKLPYHDFILEDAASPKCIMKEKKKPGETFFMCSCSSDECNDNIIFSEEYNTSNPD
light: B1 light
notes: anti-PD-L1 / TGFBRII bifunctional fusion protein: PR000265 heavy chain (hIgG1) fused without linker to human TGFBRII extracellular region 24-159
Turning to B2, the “inhibitory activity and IC50 against PR002466 and TGFB antibody” value in experiment [5] came out at 8 times. Moreover, in experiment [6], the “IC50 (nM), Smad SEAP reporter in HEK-Blue TGFB cells” value came to 0.0103 nM and the “Maximum inhibition rate (%), Smad SEAP reporter in HEK-Blue TGFB cells” value was 112%. Moreover, in experiment [7], the concentration giving a half-maximal response (EC50) was found to be 1.49 nM and the “OD Maximum value” amounted to 1.84 OD. In [8], the 50% effective concentration (EC50) was 0.515 nM and the MFI maximum value was determined as 45400 MFI. In [9], the affinity, expressed as Kd, was 0.0781 nM; the koff is 0.00025 s⁻¹; the kon was determined as 3.19e+06 M⁻¹ s⁻¹. The same molecule came in with an IC50 in experiment [10] of 0.311 nM. Further, in experiment [4], binding was put at a Kd of 0.0605 nM, the off-rate (koff) is 4.5e-05 s⁻¹ and the kon was determined as 744000 M⁻¹ s⁻¹.

B3: PR001488 (other)
heavy: B1 heavy with D54E
light: B1 light
notes: anti-PD-L1 / TGFBRII bifunctional fusion protein: PR000265 heavy chain (hIgG1) - (G4S)4 - human TGFBRII extracellular region 24-159
B3: in experiment [11], the “EC50 (nM), PD-1 reporter gene cell line” value was 0.049 nM and the “Maximum fluorescence value (RLU)” value was 3550 RLU. Moreover, in [7], the EC50 was 1.25 nM and the “OD Maximum value” stood at 1.78 OD. In experiment [8], this molecule had an EC50 of 0.531 nM and an MFI maximum value of 51500 MFI. This molecule also registered an IC50 in experiment [10] of 0.266 nM. In [12], the affinity, expressed as Kd, was 0.15 nM; the koff was 0.000121 s⁻¹; the on-rate (kon) turned out to be 807000 M⁻¹ s⁻¹.

B4: PR002247 (other)
heavy: B1 heavy with D54E, V61G, D90E, F106S
light: B1 light with V21I, Y30S, I31S, S94Y
notes: anti-PD-L1 / TGFBRII bifunctional fusion protein: PR000267 heavy chain (hIgG1) - (G4S)4 - human TGFBRII extracellular region 24-159
As for B4, the EC50 in experiment [13] worked out at 1.33 nM; in experiment [2] it was 0.852 nM. This molecule displayed an MFI maximum value in experiment [2] of 43400 MFI. The molecule further gave an IC50 in experiment [3] of 0.399 nM.

B5: PR002248 (other)
heavy: B1 heavy with G55A, V61G, D90E, F106S
light: B1 light with V21I, Y30S, I31S, S94Y
notes: anti-PD-L1 / TGFBRII bifunctional fusion protein: PR000268 heavy chain (hIgG1) - (G4S)4 - human TGFBRII extracellular region 24-159
Consider B5, for which, in experiment [1], the concentration for a half-maximal effect (EC50) was determined as 1.29 nM and the “OD Maximum value” came to 1.51 OD. For the same molecule, in experiment [2], the 50% effective concentration (EC50) amounted to 0.984 nM and the MFI maximum value was determined as 43300 MFI. In experiment [3], this molecule yielded an IC50 of 0.418 nM.

B6: PR002249 (other)
heavy: B1 heavy with G55A
light: B1 light
notes: anti-PD-L1 / TGFBRII bifunctional fusion protein: PR000266 heavy chain (hIgG1) - (G4S)4 - human TGFBRII extracellular region 24-159
B6: in experiment [1], a half-maximal response (EC50) required 1.43 nM and the “OD Maximum value” turned out to be 1.52 OD. Moreover, in experiment [2], the half-maximal effective concentration (EC50) is 0.584 nM and the MFI maximum value came to 41900 MFI. In [3], this molecule had an IC50 of 0.4 nM. Besides, in experiment [4], the Kd (usually a measure of binding affinity in units of concentration) amounted to 0.0595 nM, the koff amounted to 6.37e-05 s⁻¹ and the on-rate (kon) amounted to 1.07e+06 M⁻¹ s⁻¹.

B7: PR002466 (other)
heavy: QVQLVQSGAEVKKPGASVKVSCKASGYTFTSYWMHWVRQAPGQGLEWMGRIGPNSGFTSYNEKFKNRVTMTRDTSTSTVYMELSSLRSEDTAVYYCARGGSSYDYFDYWGQGTTVTVSSASTKGPSVFPLAPCSRSTSESTAALGCLVKDYFPEPVTVSWNSGALTSGVHTFPAVLQSSGLYSLSSVVTVPSSSLGTKTYTCNVDHKPSNTKVDKRV[letters of human IgG4 Fc with S228P F234A L235A (EU numbers) omitted]AGGGGSGGGGSGGGGSGGGGSGGAVKFPQLCKFCDVRFSTCDNQKSCMSNCSITSICEKPQEVCVAVWRKNDENITLETVCHDPKLPYHDFILEDAASPKCIMKEKKKPGETFFMCSCSSDECNDNIIFSEEYNTSNPD
light: DIVLTQSPASLAVSPGQRATITCRASESVSIHGTHLMHWYQQKPGQPPKLLIYAASNLESGVPARFSGSGSGTDFTLTINPVEAEDTANYYCQQSFEDPLTFGQGTKLEIKRTVAAPSVFIFPPSDEQLKSGTASVVCLLNNFYPREAKVQWKVDNALQSGNSQESVTEQDSKDSTYSLSSTLTLSKADYEKHKVYACEVTHQGLSSPVTKSFNRGEC
notes: also called Hengrui fusion protein 9
Regarding B7, in experiment [6], the “IC50 (nM), Smad SEAP reporter in HEK-Blue TGFB cells” value came out at 0.0769 nM and the “Maximum inhibition rate (%), Smad SEAP reporter in HEK-Blue TGFB cells” value came out at 105%. In experiment [9], this molecule yielded a dissociation constant (Kd) of 0.128 nM, a koff of 0.000573 s⁻¹ and an on-rate constant (kon) of 4.48e+06 M⁻¹ s⁻¹. In [14], this molecule gave a Kd of 0.0716 nM, a koff of 9.16e-05 s⁻¹ and a kon of 1.28e+06 M⁻¹ s⁻¹.
